{
  "source": "paper PMC4336329",
  "about": "(PLoS ONE, 2015)",
  "note": "About 14,000 (4.5%) of roughly 310,000 compounds showed an effect of 50% or more. Effects have a minus sign here. Some of the results follow.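 Further: peak tail current of the secondary pulse compared with the same well before compound.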",
  "data": [
    {"target": "human ether-à-go-go-related gene (hERG) potassium channel (human, UniProt Q12809)", "sequence (Q12809 whole entry, looked up)": "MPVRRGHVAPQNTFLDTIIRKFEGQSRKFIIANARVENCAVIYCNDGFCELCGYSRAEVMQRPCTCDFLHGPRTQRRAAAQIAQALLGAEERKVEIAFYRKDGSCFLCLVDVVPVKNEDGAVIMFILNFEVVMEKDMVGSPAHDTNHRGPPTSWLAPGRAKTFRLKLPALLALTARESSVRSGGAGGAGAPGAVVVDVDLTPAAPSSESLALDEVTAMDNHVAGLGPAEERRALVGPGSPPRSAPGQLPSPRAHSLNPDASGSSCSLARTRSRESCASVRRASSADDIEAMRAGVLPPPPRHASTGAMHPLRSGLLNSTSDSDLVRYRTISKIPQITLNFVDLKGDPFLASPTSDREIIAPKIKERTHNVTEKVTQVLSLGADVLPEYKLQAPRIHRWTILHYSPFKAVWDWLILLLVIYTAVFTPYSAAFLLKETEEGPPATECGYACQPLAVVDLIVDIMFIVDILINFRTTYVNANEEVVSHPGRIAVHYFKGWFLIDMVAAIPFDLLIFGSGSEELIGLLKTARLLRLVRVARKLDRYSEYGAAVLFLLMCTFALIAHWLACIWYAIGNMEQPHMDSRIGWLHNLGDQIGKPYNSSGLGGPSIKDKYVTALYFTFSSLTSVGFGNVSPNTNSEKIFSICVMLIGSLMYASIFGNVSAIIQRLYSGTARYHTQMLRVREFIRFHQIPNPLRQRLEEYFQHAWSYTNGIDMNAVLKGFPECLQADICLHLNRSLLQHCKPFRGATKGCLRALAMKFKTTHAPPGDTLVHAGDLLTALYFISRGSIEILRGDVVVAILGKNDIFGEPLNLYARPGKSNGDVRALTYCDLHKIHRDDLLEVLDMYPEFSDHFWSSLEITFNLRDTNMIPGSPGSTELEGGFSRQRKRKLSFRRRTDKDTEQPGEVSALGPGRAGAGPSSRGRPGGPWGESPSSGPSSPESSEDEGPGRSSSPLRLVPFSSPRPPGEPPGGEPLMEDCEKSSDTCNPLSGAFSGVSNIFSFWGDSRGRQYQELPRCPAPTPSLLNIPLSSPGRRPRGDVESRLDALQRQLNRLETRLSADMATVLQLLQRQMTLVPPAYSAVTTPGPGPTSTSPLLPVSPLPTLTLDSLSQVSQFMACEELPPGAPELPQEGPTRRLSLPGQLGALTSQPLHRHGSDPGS", "experiment": "primary screen, population patch clamp on CHO cells stably expressing hERG", "units": {"hERG current change (%, negative = inhibition) at 10uM": "%"}, "values": [
      {"smiles": "CN=C(c1ccccc1)c1c(C)cccc1C", "hERG current change (%, negative = inhibition) at 10uM": -2.39},
      {"smiles": "CC(C)N(CCCNC(=O)c1ccc(N2CCCC2=O)cc1)Cc1ccccc1", "hERG current change (%, negative = inhibition) at 10uM": -4.69},
      {"smiles": "O=C(Cc1ccc(Cl)cc1)c1c[nH]c(C(=O)NCCCN2CCOCC2)c1", "hERG current change (%, negative = inhibition) at 10uM": -38.5},
      {"smiles": "CN1CCN(CCNC(=O)Cn2c(=O)c3cccn3c3ccc(F)cc32)CC1", "hERG current change (%, negative = inhibition) at 10uM": 14.1},
      {"smiles": "Cc1ccccc1N=C1NN=C(c2ccccc2F)CS1", "hERG current change (%, negative = inhibition) at 10uM": 13.1},
      {"smiles": "CC(Sc1nc2ccccc2o1)C(=O)O", "note": "(centres unmarked)", "hERG current change (%, negative = inhibition) at 10uM": 7.4},
      {"smiles": "CSc1ncccc1C(=O)OCC(=O)NC(N)=O", "hERG current change (%, negative = inhibition) at 10uM": 17.9},
      {"smiles": "Cc1ccccc1-n1c(SCc2ccccn2)nc2n[nH]c(C)c2c1=N", "hERG current change (%, negative = inhibition) at 10uM": -1.97},
      {"smiles": "Cc1nc(NCCc2ccc(Cl)cc2)c2nnn(Cc3ccccc3)c2n1", "hERG current change (%, negative = inhibition) at 10uM": 16.2},
      {"smiles": "CC(C)(C)OC(=O)N1CCC(NC(=O)c2[nH]cnc2C(=O)Nc2cccc(Cl)c2)CC1", "hERG current change (%, negative = inhibition) at 10uM": 14.5},
      {"smiles": "COc1ccc(NC(=O)CNC(=O)Cc2cccc3ccccc23)c(OC)c1", "hERG current change (%, negative = inhibition) at 10uM": 2.01},
      {"smiles": "Cc1ccc(OCC(O)CN2CCCC2)cc1", "note": "(centres unmarked)", "hERG current change (%, negative = inhibition) at 10uM": 11.5},
      {"smiles": "Clc1ccccc1Nc1ncnc(-n2cccc2)n1", "hERG current change (%, negative = inhibition) at 10uM": -1.62},
      {"smiles": "CCCCOc1ccc(C(=O)N2CCCC2)cc1", "hERG current change (%, negative = inhibition) at 10uM": -13.4},
      {"smiles": "COc1ccc2cc(CN(C(=O)Nc3ccccc3OC)C3CCCC3)c(=O)[nH]c2c1", "hERG current change (%, negative = inhibition) at 10uM": -46.9},
      {"smiles": "CC(NC(=O)CN1CCc2ccccc21)c1ccccc1", "note": "(centres unmarked)", "hERG current change (%, negative = inhibition) at 10uM": 8.5},
      {"smiles": "CC(C)CCn1c(N2CCC(C(N)=O)CC2)nc2c1c(=O)[nH]c(=O)n2C", "hERG current change (%, negative = inhibition) at 10uM": 11.1},
      {"smiles": "COC(=O)c1cccc(NC(=S)N2CCCCC2)c1", "hERG current change (%, negative = inhibition) at 10uM": 14.1},
      {"smiles": "O=C(Nc1ccccc1C(=O)N1CCOCC1)c1cccnc1", "hERG current change (%, negative = inhibition) at 10uM": -6.93},
      {"smiles": "CC(C)=CCC(C)(C)C1OCCN1C(=O)Nc1ccccc1", "note": "(centres unmarked)", "hERG current change (%, negative = inhibition) at 10uM": -9.69},
      {"smiles": "CCC(Sc1nc2ncccc2[nH]1)C(=O)N1CCOCC1", "note": "(centres unmarked)", "hERG current change (%, negative = inhibition) at 10uM": -10},
      {"smiles": "CC(C)(C)c1cc(CN2CCC(O)CC2)cc(C(C)(C)C)c1O", "hERG current change (%, negative = inhibition) at 10uM": -70.1},
      {"smiles": "O=c1cc(N2CCCCC2)c(-c2ccccc2)nn1Cc1cccc(Cl)c1", "hERG current change (%, negative = inhibition) at 10uM": 0.996},
      {"smiles": "S=C(NCC1CCCO1)N1CCN(c2cccc(Cl)c2)CC1", "note": "(centres unmarked)", "hERG current change (%, negative = inhibition) at 10uM": -17.4},
      {"smiles": "NC(=O)COC(=O)c1cccc(NS(=O)(=O)/C=C/c2ccccc2)c1", "hERG current change (%, negative = inhibition) at 10uM": -34.2},
      {"smiles": "Cc1cc(N2C(=O)c3ccc(C(=O)Nc4ccc(O)cc4C(=O)O)cc3C2=O)no1", "hERG current change (%, negative = inhibition) at 10uM": -6.67},
      {"smiles": "CNC(=O)c1c(NC(=O)c2ccc(N3C(=O)CCC3=O)cc2)sc2c1CCC(C)C2", "note": "(centres unmarked)", "hERG current change (%, negative = inhibition) at 10uM": 2.62},
      {"smiles": "CCOc1cc(N2CCCC2)ccc1[N+](=O)[O-]", "hERG current change (%, negative = inhibition) at 10uM": 11.5},
      {"smiles": "O=C(COC(=O)c1ccc(O)cc1)Nc1cccc(S(=O)(=O)NC2=NCCCCC2)c1", "hERG current change (%, negative = inhibition) at 10uM": 6.34},
      {"smiles": "CN(C)S(=O)(=O)NCCNc1ccc(C(F)(F)F)cc1[N+](=O)[O-]", "hERG current change (%, negative = inhibition) at 10uM": 1.95},
      {"smiles": "Cc1ccc(N=Cc2cc(Cl)cc(Cl)c2O)nc1", "hERG current change (%, negative = inhibition) at 10uM": -10.9},
      {"smiles": "C/C(=N\\NC(=O)c1ccccn1)c1ccc(Cl)cc1", "hERG current change (%, negative = inhibition) at 10uM": 5.74},
      {"smiles": "CCCCNC(=O)c1cc(S(=O)(=O)N2CCCCC2)oc1C", "hERG current change (%, negative = inhibition) at 10uM": 1.42},
      {"smiles": "CCOC(=O)C(C)NC(=O)CCc1nnc2ccc(N3CCCCC3)nn12", "note": "(centres unmarked)", "hERG current change (%, negative = inhibition) at 10uM": 13.6},
      {"smiles": "Cc1sc(NC(=O)C2CCCCC2C(=O)O)c(C(N)=O)c1-c1ccc(C(C)C)cc1", "note": "(centres unmarked)", "hERG current change (%, negative = inhibition) at 10uM": -9.39},
      {"smiles": "COC1=CCC2([N+](=O)[O-])CN(CC(=O)O)CC1([N+](=O)[O-])C2", "note": "(centres unmarked)", "hERG current change (%, negative = inhibition) at 10uM": 10.5},
      {"smiles": "CCC(=O)Nc1ccc(OCC2CCCO2)cc1", "note": "(centres unmarked)", "hERG current change (%, negative = inhibition) at 10uM": 7.08},
      {"smiles": "O=C(Nc1ccc(F)cc1)N(Cc1nnc2n1CCCCC2)c1ccccc1", "hERG current change (%, negative = inhibition) at 10uM": 7.06},
      {"smiles": "C=CCn1c(O)c(N=NC(=O)c2ccc3c(c2)OCO3)c2ccccc21", "hERG current change (%, negative = inhibition) at 10uM": 4.5},
      {"smiles": "CC(C)n1c(N2CCN(CC(=O)Nc3ccc4c(c3)OCCO4)CC2)nc2ccccc21", "hERG current change (%, negative = inhibition) at 10uM": -65.4},
      {"smiles": "CCc1ccc(NC(=O)c2cc(-c3ccc4c(c3)OCO4)on2)cc1", "hERG current change (%, negative = inhibition) at 10uM": 0.435},
      {"smiles": "COc1cc(NC(=O)Cc2ccccc2OC)cc(OC)c1", "hERG current change (%, negative = inhibition) at 10uM": -9.84},
      {"smiles": "NC(=O)COC(=O)c1c2c(nc3ccccc13)CCCC2", "hERG current change (%, negative = inhibition) at 10uM": -53.3},
      {"smiles": "COc1cccc(N=c2oc3ccccc3cc2-c2nc3ccccc3[nH]2)c1", "hERG current change (%, negative = inhibition) at 10uM": 16.6},
      {"smiles": "CCOC(=O)c1nc2sc3c(c2c(=O)[nH]1)CCC(C)C3", "note": "(centres unmarked)", "hERG current change (%, negative = inhibition) at 10uM": 10.3},
      {"smiles": "CN(CC(=O)Nc1cccc(F)c1)C(=O)c1cc(=O)[nH]c2ccccc12", "hERG current change (%, negative = inhibition) at 10uM": 0.0924},
      {"smiles": "O=C(OCC(O)COc1ccccc1)c1ccc([N+](=O)[O-])cc1", "note": "(centres unmarked)", "hERG current change (%, negative = inhibition) at 10uM": -7.79},
      {"smiles": "C=C1N(c2cccc(Cl)c2)C(=O)OC1(C)C", "hERG current change (%, negative = inhibition) at 10uM": 12.7},
      {"smiles": "COc1cc(C(=O)Nc2nc(C)c(Cc3ccc4c(c3)OCO4)s2)cc(OC)c1OC", "hERG current change (%, negative = inhibition) at 10uM": -0.661},
      {"smiles": "O=C(O)CSc1ncnc2scc(-c3ccccc3)c12", "hERG current change (%, negative = inhibition) at 10uM": 13.1},
      {"smiles": "COc1ccc(NC(=O)c2cncn2-c2ccccc2)cc1", "hERG current change (%, negative = inhibition) at 10uM": 13.7},
      {"smiles": "CCNS(=O)(=O)c1ccc(NC(=S)NCC2CCCO2)cc1", "note": "(centres unmarked)", "hERG current change (%, negative = inhibition) at 10uM": 9.03},
      {"smiles": "Cn1c2ccccc2c(=O)c2c(=O)n(Cc3ccco3)c(-c3ccc(Cl)cc3Cl)nc21", "hERG current change (%, negative = inhibition) at 10uM": -2.26},
      {"smiles": "COc1ccc(C(=O)OCC(=O)N(C)C2CCS(=O)(=O)C2)cc1Br", "note": "(centres unmarked)", "hERG current change (%, negative = inhibition) at 10uM": -15.2},
      {"smiles": "COc1cc(C)c(CNCCc2c[nH]c3ccccc23)cc1C.O=C(O)C(=O)O", "hERG current change (%, negative = inhibition) at 10uM": -36.9},
      {"smiles": "CCCC(=O)Nc1ccc(Cl)c(NC(=O)c2ccc(Br)o2)c1", "hERG current change (%, negative = inhibition) at 10uM": -31.9},
      {"smiles": "COc1cc2c(cc1OC)C1(CCCC1)C(N)=C2C#N", "hERG current change (%, negative = inhibition) at 10uM": -0.733},
      {"smiles": "CCOc1cc(/C=C/c2nc3ccccc3s2)ccc1OCC(=O)N1CCOCC1", "hERG current change (%, negative = inhibition) at 10uM": -29.6},
      {"smiles": "CC(C)C1Oc2ccccc2N(CC(=O)N(Cc2ccccn2)CC2CCCO2)C1=O", "note": "(centres unmarked)", "hERG current change (%, negative = inhibition) at 10uM": -12.6}
    ]}
  ]
}
